Measured values reported in PubChem BioAssay AID761 (NMMLSC, 2007).
Among all 190,000 compounds or so, about 400 (0.21%) were called active. Inconclusive results, whose numbers are uncertain, are shown with a selection of clear calls.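 How the source made its calls: active means percent activity GTP binding at least 20 points away from the 100% baseline, either down as inhibitor or up as activator; inconclusive means compound flagged as likely green fluorescent from well-wide comparison; inactive means the rest.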

Each compound was assayed against Cell division control protein 42 homolog (Homo sapiens) (UniProt P60953) (assay: wildtype Cdc42 fluorescent GTP binding changes, either direction – biochemical, multiplex bead flow cytometry, Bodipy-GTP, primary screen (AID 761;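 further: median bead fluorescence of bound Bodipy-FL-GTP at 100 nM; 0% = excess unlabeled GTP control and 100% = no compound control; below 100% means less GTP binding so inhibitor and above means activator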)). Settings: GST-Cdc42 beads, at 10 µM, actives lie on both sides.
Sequence of UniProt P60953 (P60953 whole entry, looked up): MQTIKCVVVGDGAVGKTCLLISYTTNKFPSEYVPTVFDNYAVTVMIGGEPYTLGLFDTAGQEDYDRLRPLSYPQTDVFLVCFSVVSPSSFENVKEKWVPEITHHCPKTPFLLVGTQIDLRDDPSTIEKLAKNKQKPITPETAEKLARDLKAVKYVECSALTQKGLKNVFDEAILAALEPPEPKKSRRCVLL

SMILES	percent activity (GTP binding)
COc1ccc(NC(=O)COC(=O)c2ccc(S(=O)(=O)N(C)c3ccccc3OC)cc2)c(OC)c1	inactive: 98%
C=CC[n+]1ccc(/C=C2\C=Cc3cc(C)ccc3N2CC)c2ccccc21	inactive: 98%
CCSc1nnc(NC(=O)C2Cc3ccccc3CN2C(=O)c2ccco2)s1 (stereo not given)	inconclusive: 92%
COc1ccc2[nH]c3nc(SCC(=O)NNC(=O)c4ccc(OC)c(OC)c4)nnc3c2c1	inconclusive: 85%
O=C(NN1C(=O)C2C(C1=O)C1C=CC2C12CC2)c1ccncc1 (stereo not given)	inconclusive: 93%
O=C(NCCCO)Nc1ccc2nc(-c3ccco3)c(-c3ccco3)nc2c1	inconclusive: 87%
COCc1cc(C)nc(OC)c1C(N)=O	inactive: 96%
COc1ccc(N2C(=O)CCC(C(=O)N3CCN(c4ccccn4)CC3)C2c2ccc(F)cc2)cc1 (stereo not given)	inconclusive: 95%
CC1(C)CC(=O)/C(=C(/O)CCCN2C(=O)c3ccccc3C2=O)C(=NC(C)(C)C)C1	inactive: 103%
O=C(c1ccc(OC2CCN(Cc3ccccn3)CC2)cc1)N1CCCCCC1	inactive: 96%
O=C(O)c1ccc(N2C(=O)CC(N3CCC(c4nc5ccccc5[nH]4)CC3)C2=O)cc1 (stereo not given)	inconclusive: 90%
COc1ccc(-c2cc(C(F)(F)F)n3nc(C(=O)NCc4ccco4)cc3n2)cc1OC	inconclusive: 83%
Cc1cccc(C(=O)N(c2ccccn2)C(C)c2ccco2)c1 (stereo not given)	inconclusive: 92%
O=C1NC2(CCCCC2)C(=O)N1Cc1cccc(C(F)(F)F)c1	inactive: 103%
COCC(C)NC(=O)c1cc(-c2ccccc2OC)on1 (stereo not given)	inconclusive: 105%
O=C(/C=C/c1c(F)cccc1Cl)Nc1ncccn1	inconclusive: 102%
Cc1ccnc(NC(=O)/C=C/c2cccs2)c1	inconclusive: 142%
O=C(NC1CCCCCC1)c1cc(S(=O)(=O)N2CCCCC2)ccc1N1CCOCC1	inconclusive: 103%
Cc1nc(N/N=C/c2ccccc2)nc(N(C)c2ccccc2)c1[N+](=O)[O-]	inconclusive: 113%
Cc1cccc(C(C)C)c1NC(=O)c1ccc(CN(c2ccccc2)S(=O)(=O)c2ccccc2)cc1	inactive: 99%
O=C1CSC(=S)N1/N=C/c1ccc(O)c([N+](=O)[O-])c1	inconclusive: 91%
Fc1ccc(C2CC(c3cccs3)=NN2c2ccccc2)cc1 (stereo not given)	inconclusive: 91%
COc1ccc(OC)c(CNC(=O)CCNC(=O)Cn2ccc3ccccc3c2=O)c1	inconclusive: 104%

SMILES	percent activity (GTP binding)
Nc1[nH]c(=S)nc2nc(-c3ccccc3)c(-c3ccccc3)nc12	active: 78%
N#CCCn1cc(C(N)=O)c(-c2cccs2)n1	inactive: 95%
O=c1c2c(-c3ccccc3)csc2nc2c3ccccc3c(NCCN3CCOCC3)nn12	active: 69%
O=C(Nc1ccccc1C(=O)N1CCOCC1)C1CCC(=O)N1C1CCCC1 (stereo not given)	inconclusive: 209%
Cc1ccc(C(=C2C3C=CC2C2C(=O)NC(=O)C32)c2ccc(C)cc2)cc1 (stereo not given)	inconclusive: 106%
COc1cccc(/C=C/C(=O)c2cccc([N+](=O)[O-])c2)c1OC	inconclusive: 93%
O=C(O)c1ccc(/C=N/NC(=O)c2cc(-c3cccs3)nc3ccccc23)cc1	inconclusive: 94%
CC(CN1CCOCC1)OC(=O)c1ccccc1Br (stereo not given)	inconclusive: 104%
Cc1ccc(/C=C2/SC(=O)NC2=S)o1	inactive: 89%
O=S(=O)(Nc1ncccn1)c1ccc(-n2cnnn2)cc1	inactive: 96%
COC(=O)c1cc2nc(-c3ccc(OC)c(OC)c3)cc(C(F)(F)F)n2n1	inactive: 98%
Cn1cc(C=C2C(=O)CC(C)(C)CC2=O)c2ccccc21	active: 31%
Cc1nn(C)c(C)c1S(=O)(=O)N(CC(=O)N1CCc2ccccc2C1)c1ccc(C(C)C)cc1	inactive: 95%
COc1ccccc1C(=O)Nc1nc(-c2ccc3c(c2)OCCO3)cs1	active: 78%
O=C(c1cccs1)n1nc(-c2ccccc2)nc1NCc1ccco1	inconclusive: 97%
O=c1c2ccccc2nc2c3ccccc3c(NCc3cccnc3)nn12	active: 72%
O=S(=O)(Nc1cccc(-c2cn3ccsc3n2)c1)c1ccc(F)cc1	inconclusive: 93%
O=c1c2c(-c3ccccc3)csc2nc2n1CCC2	inconclusive: 88%
CCN(CC)CCOC(=O)c1c(C)n(C)c2ccc(OC)cc12	inconclusive: 106%
O=C(N/N=C/c1coc2ccccc2c1=O)c1cccc([N+](=O)[O-])c1	inconclusive: 94%
O=C(CSc1ncnc2ccccc12)NCC(=O)c1ccccc1	inactive: 97%
Cc1ccc(OCCC(=O)Nc2ccc(F)c(Cl)c2)cc1	inconclusive: 97%
C=CCN(CC=C)CC(O)CN(c1cc([N+](=O)[O-])ccc1OC)S(=O)(=O)c1ccccc1 (stereo not given)	inactive: 102%

SMILES	percent activity (GTP binding)
Cc1cc(C)nc(/N=C(\N)Nc2ccccc2-c2ccccc2)n1	inconclusive: 95%
NC(=O)c1cc2nc(-c3ccco3)cc(C(F)(F)F)n2n1	active: 64%
O=C(NC1CCCCCC1)C(=S)NCCc1ccccc1	inconclusive: 93%
CCOC(=O)c1c(NC(=O)COC(=O)c2nc(Cl)ccc2Cl)sc2c1CCC2	inactive: 100%
Cn1c2c(c(=O)n(C)c1=O)C(c1ccc(O)cc1)Nc1ccccc1O2 (stereo not given)	inconclusive: 96%
CCOCCCNC(=O)c1ccc(N2CCOCC2)c(NS(=O)(=O)c2ccc(OC)cc2)c1	inconclusive: 90%
O=C(CN1CCC(O)(c2ccccc2)CC1)Nc1ccc2c(c1)OCCO2	inactive: 97%
CN1c2ccsc2C(O)=C(C(=S)Nc2ccc(F)c(Cl)c2)S1(=O)=O	inactive: 99%
CCN1C(=O)/C(=C\c2ccc(-c3ccc([N+](=O)[O-])cc3OC)o2)SC1=Nc1cccc(C(=O)O)c1	inconclusive: 86%
CCCCN(CCCC)c1nc(OC)nc(-n2nnc(C(C)=O)c2C)n1	inconclusive: 98%
O=C(Nc1ccc(Cl)cc1)C1c2cccc[n+]2CC(=O)N1Cc1ccc2c(c1)OCO2 (stereo not given)	inactive: 99%
C/C(=N\NC(=O)Cc1csc(N2CCOCC2)n1)c1ccc(Cl)c(Cl)c1	inconclusive: 90%
COc1ccc(C(=O)Nc2ccccc2C(=O)N2CCCCC2C)cc1 (stereo not given)	inactive: 98%
O=C(NCCO)C(O)C(O)C(=O)NCCO (stereo not given)	inactive: 99%
COc1ccc(S(=O)(=O)Cc2ccc(C(=O)N3CCN(c4ccc(Cl)cc4)CC3)o2)cc1	inactive: 102%
COc1cc(C)c(S(=O)(=O)NCc2cccs2)cc1C	inconclusive: 93%
CCN(CC)C(=O)Cn1nnc(-c2ccc(S(C)(=O)=O)cc2)n1	inactive: 101%
COC(=O)CSc1nnc(CNC(=O)c2cccc(C)c2)n1-c1ccccc1OC	inconclusive: 106%
COc1ccc(CCN(C)c2ccc(S(=O)(=O)N3CCCC3)cc2[N+](=O)[O-])cc1OC	inactive: 101%
COc1ccccc1NC(=O)CSc1nc2n[nH]c(C)c2c(=N)n1-c1ccccc1Cl	inconclusive: 83%
CCc1ccc(NC(=O)CNC(=O)c2cn(-c3ccccc3OC)c(=O)c3ccccc23)cc1	inconclusive: 94%
O=C1OC(c2ccccc2)=NC12CC2c1ccc(Cl)cc1 (stereo not given)	inconclusive: 97%
CCOc1ccc(CC(=O)NCC2(N3CCCCC3)CCCCC2)cc1	inconclusive: 80%

SMILES	percent activity (GTP binding)
CC(=O)Nc1ccc(S(=O)(=O)Nc2ccc(C)c([N+](=O)[O-])c2)cc1	inconclusive: 93%
COc1ccc(-c2ccc(SCc3ccccn3)nn2)cc1OC	inconclusive: 88%
Cc1c[n+](C)ccc1CC1C([N+](=O)[O-])=C[N-]c2ncnn21 (stereo not given)	inactive: 98%
CCN(CC)CCCNCC(=O)Nc1ccc2c(c1)CCC2	inactive: 95%
COC(=O)C1=C(N)OC2=C(C(=O)CC(C)(C)C2)C1c1cccnc1 (stereo not given)	inconclusive: 109%
CCOc1ccc(NC(=S)N2CCN(C/C=C/c3ccccc3)CC2)cc1	inactive: 94%
COc1cc(/C=C/c2ccc3cccc([N+](=O)[O-])c3n2)ccc1OCC(=O)O	active: 70%
C=CCn1c(-c2cccn(Cc3ccc(Cl)cc3Cl)c2=O)n[nH]c1=S	inconclusive: 108%
NS(=O)(=O)c1ccc(N=Nc2c(=O)[nH]n3c(=O)c4c([nH]c23)CCCC4)cc1	inconclusive: 87%
COc1ccc(N2C(=O)CC(Sc3nccc(C)n3)C2=O)cc1 (stereo not given)	inconclusive: 104%
O=C(CN1C(=O)c2cccc3cccc(c23)C1=O)NCCN1CCOCC1	inconclusive: 99%
COCCn1c(SCC(=O)Nc2ccc(OC)cc2)nc2c(oc3ccccc32)c1=O	inconclusive: 91%
CC12CCC(C(=O)NCCCn3ccnc3)(OC1=O)C2(C)C (stereo not given)	inconclusive: 117%
CCCCCCn1c(Br)nc2c1c(=O)n(C)c(=O)n2C	inconclusive: 91%
Cc1ccc(C(=O)Oc2coc(CSc3nnc(NC(=O)c4cccs4)s3)cc2=O)cc1C	inconclusive: 91%
CCOC(=O)c1ccc(-n2c(C)ccc2C)cc1	inconclusive: 99%
COc1ccc(OC)c(NC(=O)c2ccc(CN3CCOCC3)cc2)c1	inconclusive: 108%
Cc1c(NS(=O)(=O)c2cccc(C(=O)OCC(=O)N(C)C3CCCCC3)c2)c(=O)n(-c2ccccc2)n1C	inactive: 101%
CCOCCCn1c(SCC(=O)Nc2ccc(C(N)=O)cc2)nc2ccccc2c1=O	inactive: 102%
COc1ccc(-c2cc(C3CC3)nc3sc(C#N)c(N)c23)cc1	inconclusive: 95%
COc1cc(C(=S)N2CCCC2)ccc1O	inconclusive: 88%
